Assay results taken from the supplement of paper PMC12217912.
Some of the results follow. The full chains were built here from the parent and the listed change. Values near 0.05 are background.

B1: TEV protease; numbered along this chain (parent)
chain: MGESLFKGPRDYNPISSSICHLTNESDGHTTSLYGIGFGPFIITNKHLFRRNNGTLVVQSLHGVFKVKDTTTLQQHLVDGRDMIIIRMPKDFPPFPQKLKFREPQREERICLVTTNFQTKSMSSMVSDTSCTFPSGDGIFWKHWIQTKDGQCGSPLVSTRDGFIVGIHSASNFTNTNNYFTSVPKNFMELLTNQEAQQWVSGWRLNADSVLWGGHKVFMVKPEEPFQPVKEATQL

Variants of: B1
Test: raw area under fraction-flipped curve 0-4 h after induction (AUC4h, not background-subtracted), DNA-recorder readout of cleavage of the substrate (dimensionless); higher = more cleavage of the substrate by the protease variant
Conditions: temperature: 34 °C; time window: 0-4 h after rhamnose induction
Protocol: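 In vivo DNA recorder in E. coli TOP10(DE3) ΔrhaA at 34 °C. Each TEVp single-site mutant (parent TEVp 0) is paired with a single-site variant of the 7-mer TEVs (canonical ENLYFQ|S). The substrate sits between flexible linkers in a Bxb1-sfGFP-TEVs-SsrA fusion, so cleavage stabilises Bxb1 and speeds flipping of a recombination array, read by NGS. The value is the raw area under the fraction-flipped curve over 0-4 h after rhamnose induction (AUC4h), with ≥20 reads per time point. It is not background-subtracted; inactive controls average about 0.047.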
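Also: Bxb1 expression induced with 0.2% (w/v) L-rhamnose at OD600 near 0.5, cultures sampled hourly, flipped fraction per protease–substrate barcode pair counted by paired-end Illumina sequencing.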

Variant	area with substrate ENAYFQS	area with substrate ENDYFQS	area with substrate ENMYFQS	area with substrate ENSYFQS	area with substrate ENTYFQS	area with substrate ENVYFQS	area with substrate ENWYFQS	area with substrate ENCYFQS	area with substrate ENEYFQS	area with substrate ENFYFQS	area with substrate ENGYFQS	area with substrate ENHYFQS	area with substrate ENNYFQS	area with substrate ENPYFQS	area with substrate ENQYFQS	area with substrate ENRYFQS	area with substrate ENIYFQS	area with substrate ENKYFQS	area with substrate ENYYFQS
M122G	0.0743	0.0746	0.0887	0.0664	0.0635	0.0777	0.0635	–	–	–	–	–	–	–	–	–	–	–	–
M122D	0.0679	0.0537	0.0877	0.0457	0.0524	0.0747	0.048	0.0678	0.0737	0.0684	0.0716	0.0625	0.057	0.0587	0.0646	0.0601	–	–	–
M122S	0.0526	–	–	0.0609	0.0991	0.0688	–	0.059	0.0666	0.0619	0.061	–	–	–	0.0689	–	0.113	0.0572	0.0753
I164K	0.0617	–	–	–	–	0.0601	–	–	0.0437	–	–	–	–	–	–	–	–	–	0.0276
I164S	0.0543	0.0913	0.0517	0.0576	0.048	0.0543	0.0385	–	0.0595	0.0605	0.0672	0.0599	0.06	–	0.067	0.0544	0.0547	0.0629	0.0596
I164R	0.0467	0.0547	–	0.0481	0.0534	0.0534	0.0283	0.0477	0.0605	0.055	0.058	0.0365	0.0587	–	0.0573	–	–	–	0.0546
I139L	0.0734	0.0491	0.0807	0.0581	0.0635	0.0851	–	0.0725	0.0554	0.0553	–	0.0512	–	0.0629	0.0543	0.0538	0.106	–	0.0644
I139H	0.0987	0.058	–	0.0578	0.0475	–	–	–	0.0397	0.0946	0.059	–	0.0603	–	0.0608	0.0662	0.0797	–	–
I139E	0.0783	0.0522	0.0909	0.0589	–	–	0.0111	0.0589	0.0655	0.0621	0.0625	0.0607	–	–	–	0.0912	0.106	0.0787	–
I167N	0.0576	0.0537	0.0552	0.0666	–	0.056	0.0548	0.0544	0.0607	0.0423	0.0628	–	0.0491	–	0.0565	–	0.0521	–	–
I167H	0.056	–	–	–	–	–	0.0572	0.0419	0.0436	0.057	0.0973	–	–	–	–	0.0758	–	–	–
V126S	0.0573	0.0659	0.0827	0.0675	0.0726	0.0887	0.0617	0.0521	–	0.0684	0.0591	0.0549	0.069	–	0.0669	–	–	0.0704	0.0658
S123F	0.0648	0.0547	0.0712	0.0674	0.0598	0.0755	0.0597	0.061	0.0583	0.0689	0.0626	–	0.0554	–	0.0567	0.0718	–	0.0577	–
P155R	0.0241	0.0556	–	–	0.0401	0.0292	–	0.0493	0.0704	0.0167	0.0565	0.0513	0.064	0.0615	0.0643	0.0517	–	–	0.0517
S130L	0.0612	0.065	0.0739	0.0509	0.0448	0.0675	0.0615	0.0543	0.0597	0.0671	–	0.0683	–	0.0561	0.0326	0.044	0.0951	0.0456	0.0516
P134I	0.0657	0.0681	–	0.0556	0.0628	0.0666	0.0812	–	–	0.0607	0.0637	–	–	0.0458	0.0641	–	0.095	0.0559	0.0368
P134S	0.0692	0.0632	–	–	0.0507	–	–	0.0656	0.0559	–	0.0535	0.0784	0.0563	0.0292	0.0687	–	–	–	–
G136S	0.0856	0.0795	–	0.0496	0.0559	–	–	0.0727	0.0414	–	–	0.0645	0.06	0.0381	–	0.0573	–	0.061	–
I145W	0.0592	–	–	0.0587	–	0.0597	0.0142	–	–	0.0536	0.0646	0.0519	0.0519	–	0.0584	0.0467	–	–	–
D149C	0.0678	0.0559	–	–	0.031	0.0654	–	–	0.0499	0.0544	–	–	–	0.0596	0.0567	–	–	–	–
D149H	0.061	0.0599	–	0.0584	0.0599	–	–	0.0614	0.0513	0.058	0.0561	–	0.0663	0.0545	0.0598	–	–	–	0.0635
Q151A	0.0602	0.0606	0.0704	0.0728	0.0626	–	–	–	0.0646	0.0674	–	0.0826	0.0576	0.0619	0.0556	–	–	0.0484	–
Q151R	0.0653	0.0696	–	–	0.058	0.0571	–	0.0693	–	–	0.0702	0.0637	0.071	0.0499	0.0593	0.0606	0.0844	0.0391	–
F133T	0.0515	0.066	–	0.0675	–	0.0831	0.0483	0.0689	0.0617	–	–	–	0.0666	–	0.0779	–	–	–	–
S127F	0.064	0.0807	0.11	0.06	0.061	–	0.0618	0.0631	0.0516	0.055	0.0531	0.0563	0.0619	–	0.0643	–	0.124	–	–
S127V	0.0674	0.0644	–	0.0501	–	0.115	–	0.072	0.059	0.0639	0.0595	0.0555	–	0.0372	0.0574	–	0.103	–	0.0473
K148Y	0.0449	0.0551	–	0.069	0.0675	0.0808	–	–	0.0562	–	–	–	–	0.0826	–	–	0.113	0.068	0.0591
K148D	0.0545	0.0543	–	0.0686	0.0555	–	–	0.0546	0.0686	0.0621	–	0.0649	0.0629	0.0756	0.0628	–	–	–	0.0602
K148S	0.0644	–	0.0572	–	0.0618	–	–	–	–	–	–	–	–	0.0742	0.0697	–	–	0.0597	–
